Test results: the supplement of paper PMC4967469

What was measured:
FR-180204 = compound: Nc1[nH]nc2nnc(-c3c(-c4ccccc4)nn4ccccc34)cc12 [FR-180204]; test: Viability of human cancer cell lines after 72 h of drug (GDSC screen); conditions: top dose 20 µM; top dose inferred
Procedure: (§1)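 Human cancer cell lines in 384-well plates, medium with 10% serum, drug for 72 h over a 256-fold dose range (nine 2-fold or five 4-fold steps up to the top dose). Adherent lines were fixed and stained with the nucleic acid dye Syto60, suspension lines read with resazurin; signal relative to control wells, capped at 0 and 100%. One two-parameter sigmoid per drug and line, fitted in a mixed model over all curves with the slope shared within a line.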

FK866 = compound: O=C(/C=C/c1cccnc1)NCCCCC1CCN(C(=O)c2ccccc2)CC1 [FK866]; test: as above; conditions: top dose 1 µM; top dose inferred
Procedure: as §1

Row | Cell Line | AUC (FR-180204) | pIC50 (FR-180204) | AUC (FK866) | pIC50 (FK866)
1 | PL18 (pancreas, adherent) | 0.981 | < 4.70 | 0.791 | 6.35
2 | PL-21 (acute myeloid leukaemia, suspension) | 0.883 | < 4.70 | 0.221 | 8.09
3 | PSN1 (pancreas, adherent) | 0.921 | < 4.70 | 0.164 | 8.12
4 | QGP-1 (pancreas, adherent) | 0.918 | < 4.70 | 0.473 | 7.30
5 | QIMR-WIL (acute myeloid leukaemia, suspension) | 0.964 | < 4.70 | 0.117 | > 8.41
6 | RC-K8 (B-cell lymphoma, suspension) | 0.993 | < 4.70 | 0.327 | 7.66
7 | RCC-AB (kidney, adherent) | 0.913 | < 4.70 | 0.894 | < 6.00
8 | RCC-ER (kidney, adherent) | 0.985 | < 4.70 | 0.934 | < 6.00
9 | RCC-FG2 (kidney, adherent) | 0.955 | < 4.70 | 0.91 | < 6.00
10 | RCC-JF (kidney, adherent) | 0.95 | < 4.70 | 0.423 | 7.43
11 | RCC-JW (kidney, adherent) | 0.96 | < 4.70 | 0.17 | 8.22
12 | RCC-MF (kidney, adherent) | 0.881 | < 4.70 | 0.586 | 6.94
13 | RCM-1 (large intestine, adherent) | 0.982 | < 4.70 | 0.888 | < 6.00
14 | RD (rhabdomyosarcoma, adherent) | 0.976 | < 4.70 | 0.212 | 8.09
15 | REH (B-cell leukaemia, suspension) | 0.958 | < 4.70 | 0.036 | > 8.41
16 | RERF-GC-1B (stomach, adherent) | 0.904 | < 4.70 | 0.976 | < 6.00
17 | RERF-LC-KJ (lung adenocarcinoma, adherent) | 0.983 | < 4.70 | 0.974 | < 6.00
18 | RERF-LC-MS (lung adenocarcinoma, adherent) | 0.945 | < 4.70 | 0.316 | 7.73
19 | RERF-LC-Sq1 (lung squamous cell carcinoma, adherent) | 0.955 | < 4.70 | 0.884 | < 6.00
20 | RF-48 (stomach, adherent) | 0.897 | < 4.70 | 0.256 | 7.95
21 | RH-1 (rhabdomyosarcoma, adherent) | 0.936 | < 4.70 | 0.076 | > 8.41
22 | RH-41 (rhabdomyosarcoma, adherent) | 0.991 | < 4.70 | 0.042 | > 8.41
23 | RKN (ovary, adherent) | 0.944 | < 4.70 | 0.984 | < 6.00
24 | RKO (large intestine, adherent) | 0.982 | < 4.70 | 0.987 | < 6.00
25 | RL95-2 (endometrium, adherent) | 0.987 | < 4.70 | 0.075 | > 8.41

Row | Cell Line | AUC (FR-180204) | pIC50 (FR-180204) | AUC (FK866) | pIC50 (FK866)
26 | RL (B-cell lymphoma, suspension) | 0.974 | < 4.70 | 0.927 | < 6.00
27 | RMG-I (ovary, adherent) | 0.929 | < 4.70 | 0.678 | 6.67
28 | RO82-W-1 (thyroid, adherent) | 0.983 | < 4.70 | 0.869 | < 6.00
29 | ROS-50 (B-cell leukaemia, suspension) | 0.979 | < 4.70 | 0.245 | 8.04
30 | RPMI-2650 (head and neck, adherent) | 0.971 | < 4.70 | 0.276 | 7.87
31 | RPMI-6666 (Hodgkin lymphoma, suspension) | 0.944 | < 4.70 | 0.303 | 7.81
32 | RPMI-8402 (T-cell lymphoblastic leukaemia, suspension) | 0.973 | < 4.70 | 0.985 | < 6.00
33 | RPMI-8866 (chronic myeloid leukaemia, suspension) | 0.965 | < 4.70 | 0.037 | > 8.41
34 | RS4-11 (leukaemia, suspension) | 0.949 | < 4.70 | 0.026 | > 8.41
35 | RT4 (bladder, adherent) | 0.957 | < 4.70 | 0.986 | < 6.00
36 | RT-112 (bladder, adherent) | 0.957 | < 4.70 | 0.351 | 7.63
37 | RVH-421 (melanoma, adherent) | 0.849 | < 4.70 | 0.728 | 6.44
38 | RXF393 (kidney, adherent) | 0.969 | < 4.70 | 0.965 | < 6.00
39 | Raji (Burkitt lymphoma, suspension) | 0.99 | < 4.70 | 0.1 | > 8.41
40 | Ramos-2G6-4C10 (Burkitt lymphoma, suspension) | 0.984 | < 4.70 | 0.05 | > 8.41
41 | SAS (head and neck, adherent) | 0.921 | < 4.70 | 0.376 | 7.56
42 | SBC-1 (small cell lung carcinoma, suspension) | 0.989 | < 4.70 | 0.197 | 8.09
43 | SBC-3 (small cell lung carcinoma, adherent) | 0.975 | < 4.70 | 0.024 | > 8.41
44 | SBC-5 (small cell lung carcinoma, adherent) | 0.993 | < 4.70 | 0.234 | 7.89
45 | SCC-4 (head and neck, adherent) | 0.974 | < 4.70 | 0.852 | < 6.00
46 | SCC-9 (head and neck, adherent) | 0.939 | < 4.70 | 0.954 | < 6.00
47 | SCC-15 (head and neck, adherent) | 0.977 | < 4.70 | 0.689 | 6.59
48 | SCC-25 (head and neck, adherent) | 0.965 | < 4.70 | 0.917 | < 6.00
49 | SCH (stomach, adherent) | 0.988 | < 4.70 | 0.35 | 7.63
50 | SF126 (glioma, adherent) | 0.982 | < 4.70 | 0.088 | > 8.41

Row | Cell Line | AUC (FR-180204) | pIC50 (FR-180204) | AUC (FK866) | pIC50 (FK866)
51 | SF268 (glioma, adherent) | 0.972 | < 4.70 | 0.151 | 8.33
52 | SF295 (glioma, adherent) | 0.985 | < 4.70 | 0.183 | 8.20
53 | SF539 (glioma, adherent) | 0.977 | < 4.70 | 0.059 | > 8.41
54 | SH-4 (melanoma, adherent) | 0.868 | < 4.70 | 0.508 | 7.18
55 | SHP-77 (small cell lung carcinoma, semi-adherent) | 0.99 | < 4.70 | 0.938 | < 6.00
56 | SIMA (neuroblastoma, adherent) | 0.869 | < 4.70 | 0.974 | < 6.00
57 | SISO (cervix, adherent) | 0.988 | < 4.70 | 0.172 | 8.17
58 | SJRH30 (rhabdomyosarcoma, adherent) | 0.986 | < 4.70 | 0.094 | > 8.41
59 | SJSA-1 (bone, adherent) | 0.975 | < 4.70 | 0.146 | 8.39
60 | SK-CO-1 (large intestine, adherent) | 0.95 | < 4.70 | 0.909 | < 6.00
61 | SK-ES-1 (Ewing sarcoma, semi-adherent) | 0.944 | < 4.70 | 0.033 | > 8.41
62 | SK-GT-4 (oesophagus, adherent) | 0.973 | < 4.70 | 0.591 | 6.93
63 | SK-HEP-1 (liver, adherent) | 0.985 | < 4.70 | 0.083 | > 8.41
64 | SK-LMS-1 (soft tissue, adherent) | 0.987 | < 4.70 | 0.166 | 8.19
65 | SK-LU-1 (lung adenocarcinoma, adherent) | 0.978 | < 4.70 | 0.929 | < 6.00
66 | SK-MEL-1 (melanoma, suspension) | 0.989 | < 4.70 | 0.202 | 8.02
67 | SK-MEL-2 (melanoma, adherent) | 0.986 | < 4.70 | 0.404 | 7.47
68 | SK-MEL-3 (melanoma, adherent) | 0.909 | < 4.70 | 0.978 | < 6.00
69 | SK-MEL-5 (melanoma, adherent) | 0.982 | < 4.70 | 0.506 | 7.19
70 | SK-MEL-24 (melanoma, adherent) | 0.897 | < 4.70 | 0.867 | < 6.00
71 | SK-MEL-28 (melanoma, adherent) | 0.963 | < 4.70 | 0.618 | 6.88
72 | SK-MEL-30 (melanoma, adherent) | 0.975 | < 4.70 | 0.656 | 6.76
73 | SK-MES-1 (lung squamous cell carcinoma, adherent) | 0.963 | < 4.70 | 0.846 | 6.08
74 | SK-MG-1 (glioma, adherent) | 0.987 | < 4.70 | 0.791 | 6.34
75 | SK-MM-2 (myeloma, suspension) | 0.897 | < 4.70 | 0.083 | > 8.41

Row | Cell Line | AUC (FR-180204) | pIC50 (FR-180204) | AUC (FK866) | pIC50 (FK866)
76 | SK-N-AS (neuroblastoma, adherent) | 0.961 | < 4.70 | 0.541 | 7.08
77 | SK-N-DZ (neuroblastoma, adherent) | 0.987 | < 4.70 | 0.985 | < 6.00
78 | SK-N-FI (neuroblastoma, adherent) | 0.98 | < 4.70 | 0.744 | 6.51
79 | SK-N-SH (neuroblastoma, adherent) | 0.961 | < 4.70 | 0.055 | > 8.41
80 | SK-OV-3 (ovary, adherent) | 0.955 | < 4.70 | 0.579 | 6.96
81 | SK-PN-DW (Ewing sarcoma, adherent) | 0.977 | < 4.70 | 0.055 | > 8.41
82 | SK-UT-1 (soft tissue, adherent) | 0.989 | < 4.70 | 0.101 | > 8.41
83 | SKG-IIIa (cervix, adherent) | 0.981 | < 4.70 | 0.878 | < 6.00
84 | SKN (uterus, adherent) | 0.977 | < 4.70 | 0.649 | 6.75
85 | SKN-3 (head and neck, adherent) | 0.96 | < 4.70 | 0.489 | 7.24
86 | SLVL (B-cell lymphoma, suspension) | 0.984 | < 4.70 | 0.846 | 6.10
87 | SN12C (kidney, adherent) | 0.977 | < 4.70 | 0.175 | 8.25
88 | SNB75 (glioma, adherent) | 0.979 | < 4.70 | 0.805 | 6.09
89 | SNG-M (endometrium, adherent) | 0.963 | < 4.70 | 0.07 | > 8.41
90 | SNU-61 (large intestine, adherent) | 0.931 | < 4.70 | 0.383 | 7.57
91 | SNU-81 (large intestine, adherent) | 0.982 | < 4.70 | 0.744 | 6.39
92 | SNU-182 (liver, adherent) | 0.981 | < 4.70 | 0.845 | 6.11
93 | SNU-387 (liver, adherent) | 0.967 | < 4.70 | 0.951 | < 6.00
94 | SNU-398 (liver, adherent) | 0.984 | < 4.70 | 0.095 | > 8.41
95 | SNU-407 (large intestine, adherent) | 0.896 | < 4.70 | 0.1 | > 8.41
96 | SNU-423 (liver, adherent) | 0.979 | < 4.70 | 0.692 | 6.62
97 | SNU-449 (liver, adherent) | 0.975 | < 4.70 | 0.573 | 7.00
98 | SNU-1040 (large intestine, adherent) | 0.896 | < 4.70 | 0.443 | 7.38

pIC50: −log10 of the molar value. IC50 is the fitted dose that halves viability relative to control wells, and lower means more sensitive; fits outside the tested doses are given as limits. AUC, from the same fit, is the share of area under the viability curve across the 256-fold dose range; values near 1 show little effect. An inferred top dose was calculated from the reported fits.
